Measured values published in the supplement of paper PMC4967469.
IC50 is the fitted dose that halves viability relative to control wells, and lower means more sensitive; where the fit passes the top or lowest dose, that dose stands as a limit. For AUC the same curve is integrated over the 256-fold range of doses and scaled to a fraction: 1 means no effect, lower means more sensitive. For some of these results: A top dose marked as inferred is not printed in the source and was worked back from the curve model. For some of these results: Drugs with an entry number were screened twice under separate entries, and the two screens often disagree.

Legend:
Experiment in all cases: Viability of human cancer cell lines after 72 h of drug (GDSC screen)
[1] = compound: COc1cc(N2CCC(O)CC2)ccc1Nc1cc(Nc2ccccc2S(=O)(=O)C(C)C)c2cc[nH]c2n1 [MPS-1-IN-1]; settings: top dose 20 µM; top dose inferred
Protocol: (§1)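 Human cancer cell lines in 384-well plates, medium with 10% serum, drug for 72 h over a 256-fold dose range (nine 2-fold or five 4-fold steps up to the top dose). Adherent lines were fixed and stained with the nucleic acid dye Syto60, suspension lines read with resazurin; signal relative to control wells, capped at 0 and 100%. One two-parameter sigmoid per drug and line, fitted in a mixed model over all curves with the slope shared within a line.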

[2] = compound: Nc1ccn([C@@H]2O[C@H](CO)[C@@H](O)[C@@H]2O)c(=O)n1 [Cytarabine]; settings: top dose 2 µM
Protocol: as §1

[3] = compound: COc1cc(O)c2c(c1)/C=C/C[C@H](O)[C@H](O)C(=O)/C=C\C[C@H](C)OC2=O [(5Z)-7-Oxozeaenol]; settings: top dose 10 µM; top dose inferred
Protocol: as §1

[4] = compound: Cc1ccc(F)c(NC(=O)Nc2ccc(-c3cccc4[nH]nc(N)c34)cc2)c1 [ABT-869]; settings: top dose 1.024 µM; top dose inferred
Protocol: as §1

[5] = compound: COc1nc(C)cnc1NS(=O)(=O)c1cccnc1-c1ccc(-c2nnco2)cc1 [Zibotentan]; settings: top dose 20 µM; top dose inferred
Protocol: as §1

[6] = compound: C[C@]1(c2nc3c(C(N)=O)cccc3[nH]2)CCCN1 [ABT-888]; settings: top dose 5 µM; top dose inferred
Protocol: as §1

[7] = compound: O=c1cc(-c2cccc3c2Sc2ccccc2S3)oc(N2CCOCC2)c1 [KU-55933]; settings: top dose 10 µM
Protocol: as §1

[8] = compound: Cc1cnc(-c2cnc(NCCNc3ccc(C#N)cn3)nc2-c2ccc(Cl)cc2Cl)[nH]1 [CHIR-99021]
Protocol: as §1

[9] = compound: COc1cc2ncnc(-n3nc(-c4ccccn4)nc3N)c2cc1OC [CP466722]; settings: top dose 16 µM; top dose inferred
Protocol: as §1

[10] = compound: C/C=C(/C)C(=O)O[C@H]1C(C)=C2[C@H]([C@@H]1OC(=O)CCCCCCC)[C@@](C)(OC(C)=O)C[C@H](OC(=O)CCC)[C@@]1(O)[C@H]2OC(=O)[C@@]1(C)O [Thapsigargin]; settings: top dose 0.512 µM; top dose inferred
Protocol: as §1

[11] = compound: C=CC(=O)Nc1cc(-n2c(=O)ccc3cnc4ccc(-c5cn[nH]c5)cc4c32)ccc1C [QL-X-138]; settings: top dose 10.24 µM; top dose inferred
Protocol: as §1

[12] = compound: CCn1c(-c2nonc2N)nc2cnc(Oc3cccc(NC(=O)c4ccc(OCCN5CCOCC5)cc4)c3)cc21 [GSK269962A]; settings: top dose inferred
Protocol: as §1

[13] = top dose 2.56 µM, screen: GDSC drug entry 154
[14] = top dose 10 µM, screen: GDSC drug entry 1241, top dose inferred
[15] = top dose 5 µM, screen: GDSC drug entry 1192
[16] = top dose 2.5 µM, screen: GDSC drug entry 127

Row | Cell Line | AUC [1] | IC50 [1] [µM] | AUC [2] | IC50 [2] [nM] | AUC [3] | IC50 [3] [nM] | AUC [4] | IC50 [4] [nM] | AUC [5] | IC50 [5] [µM] | AUC [6] | IC50 [6] [µM] | AUC [7] | IC50 [7] [µM] | AUC [8, 13] | IC50 [8, 13] [µM] | AUC [8, 14] | IC50 [8, 14] [µM] | AUC [9] | IC50 [9] [µM] | AUC [10] | IC50 [10] [nM] | AUC [11] | IC50 [11] [µM] | AUC [12, 15] | IC50 [12, 15] [µM] | AUC [12, 16] | IC50 [12, 16] [µM]
1 | TYK-nu (ovary, adherent) | 0.929 | > 20 | 0.754 | 713 | 0.44 | 423 | 0.979 | > 1020 | 0.975 | > 20 | 0.974 | > 5 | 0.918 | > 10 | 0.75 | 0.887 | 0.878 | > 10 | 0.904 | > 16 | 0.189 | 3.48 | 0.92 | > 10.2 | 0.881 | > 5 |  | 
2 | U-118-MG (glioma, adherent) | 0.979 | > 20 | 0.857 | > 2000 | 0.686 | 2270 | 0.96 | > 1020 | 0.982 | > 20 | 0.981 | > 5 | 0.966 | > 10 | 0.911 | > 2.56 | 0.942 | > 10 | 0.985 | > 16 | 0.478 | 27.7 | 0.811 | 6.52 | 0.834 | 4 |  | 
3 | UACC-62 (melanoma, adherent) | 0.974 | > 20 | 0.749 | 644 | 0.169 | 62.5 | 0.983 | > 1020 | 0.984 | > 20 | 0.984 | > 5 | 0.987 | > 10 |  |  | 0.909 | > 10 | 0.949 | > 16 | 0.689 | 107 | 0.836 | 6.66 | 0.921 | > 5 |  | 
4 | UACC-893 (breast, adherent) | 0.975 | > 20 | 0.944 | > 2000 | 0.732 | 3670 | 0.981 | > 1020 | 0.982 | > 20 | 0.98 | > 5 | 0.957 | > 10 | 0.983 | > 2.56 | 0.98 | > 10 | 0.805 | 11.6 | 0.65 | 96.7 | 0.527 | 0.777 | 0.867 | > 5 |  | 
5 | VAL (B-cell lymphoma, suspension) | 0.911 | > 20 | 0.444 | 87.9 | 0.627 | 1400 | 0.987 | > 1020 | 0.987 | > 20 | 0.987 | > 5 | 0.967 | > 10 | 0.986 | > 2.56 | 0.984 | > 10 | 0.62 | 2.14 | 0.551 | 44 | 0.504 | 0.655 | 0.929 | > 5 | 0.584 | 0.265
